# Test results: PubChem BioAssay AID485294 (National Center for Advancing Translational Sciences (NCATS), 2010)
# Among all 370,000 compounds or so, about 150 (0.041%) were called active. Inconclusive results, whose numbers are uncertain, are shown with a selection of clear calls. The call rests on the fitted dose curve; in most records, active means well fitted inhibition curve with a large enough effect; inconclusive means small, poorly fitted or top-dose-only effect; inactive means flat fitted curve, though single readings scatter. Potencies of inconclusive entries are left out as doubtful fits.
# Target: Beta-lactamase (Escherichia coli (strain K12)) (UniProt P00811)
# Assay: qHTS Inhibitors of AmpC Beta-Lactamase (assay with detergent); further: nearly all actives have a fitted effect of over 25% in size;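 on activity change, negative = inhibition: 0% = no-compound wells and -100% = no-enzyme wells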
# Conditions: AmpC hydrolysis of nitrocefin, absorbance 480 nm, 0.01% Triton; activity change, negative = inhibition: at 114 µM (top of the series)
# Procedure, shortened: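 20 mM phosphate pH 7.0 + 0.01% (detergent screen) or 0.0001% Triton X-100; 5.3 nM AmpC reagent; cpd preinc 15 min RT; nitrocefin (800 uM stock) to start; A480 q20 s × 4 min; Activity was normalised to no-enzyme and no-compound control wells.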
# Potency means the concentration at half of the fitted maximal effect; tags describe the fitted curve by direction and shape.
# Sequence of UniProt P00811 (P00811 whole entry, looked up): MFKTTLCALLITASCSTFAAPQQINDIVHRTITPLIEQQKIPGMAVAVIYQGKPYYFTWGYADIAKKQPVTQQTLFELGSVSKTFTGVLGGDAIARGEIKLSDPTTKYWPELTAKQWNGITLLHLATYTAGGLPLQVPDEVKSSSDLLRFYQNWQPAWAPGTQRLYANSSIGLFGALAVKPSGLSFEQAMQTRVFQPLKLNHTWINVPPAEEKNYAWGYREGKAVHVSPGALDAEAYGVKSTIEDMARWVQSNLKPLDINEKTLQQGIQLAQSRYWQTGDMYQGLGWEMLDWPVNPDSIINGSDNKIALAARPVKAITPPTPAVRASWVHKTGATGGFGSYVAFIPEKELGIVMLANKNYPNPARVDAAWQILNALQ
SMILES,Potency,"activity change, negative = inhibition"
COc1ccc(C)cc1NC(=O)C12CCC(C)(C(=O)O1)C2(C)C (centres undefined),"inconclusive [inhibitor, single point]",
Cc1cc(C)nc(N(C#N)Cc2ccccc2)n1,"inconclusive [inhibitor, single point]",
Cc1nc2sc3c(c2c(=O)o1)CCC3,,inactive: -3.08%
Cc1ccc2[nH]c(=O)c(CN(Cc3ccccc3Cl)C(=O)N3CCOCC3)cc2c1,"inconclusive [inhibitor, full curve, poor fit]",
O=C(O)C(O)c1ccco1 (centres undefined),"inconclusive [inhibitor, full curve]",
CC1CCCC(NC(=O)NC(=O)COC(=O)C2=NN(c3ccccc3)C(=O)CC2)C1C (centres undefined),"inconclusive [inhibitor, full curve, poor fit]",
Cc1ccc(NC(=O)c2ccccc2O)cc1,"inconclusive [inhibitor, partial curve, poor fit]",
COc1ccc(CCNC(=O)CCCN2C(=O)c3ccccc3C2=O)cc1,"inconclusive [inhibitor, full curve, poor fit]",
Cc1ccc2cccc(OCCCOc3ccccc3F)c2n1,,inactive: -11.9%
CCCCC1CCC(c2nc(-c3cccnc3)no2)CC1 (centres undefined),,inactive: -0.914%
Cc1ccc2c(CNCc3ccc(C)o3)c(C(=O)O)n(Cc3ccccc3C)c2c1,"inconclusive [inhibitor, single point]",
Cc1ccc(C)c2c1sc(=NC(=O)CN1C(=O)CCC1=O)n2C,"inconclusive [inhibitor, full curve, poor fit]",
CCC(c1nnnn1CC1CCCO1)N(CCCO)Cc1cc2cccc(C)c2[nH]c1=O (centres undefined),"inconclusive [inhibitor, full curve, poor fit]",
Cc1ccc(CNC(=O)C2CCN(S(=O)(=O)c3ccc(Br)s3)CC2)cc1,"inconclusive [inhibitor, partial curve, poor fit]",
CCC(C(=O)N1CCN(c2cccc(Cl)c2)CC1)c1ccccc1 (centres undefined),"inconclusive [inhibitor, full curve, poor fit]",
CCOc1ccc(NC(=O)Cn2c(=O)n(CCCCCC(=O)NCc3ccccc3)c(=O)c3sccc32)cc1,,inactive: -0.945%
COc1ccc(C(=O)c2cnc3ccccc3c2-c2ccccc2)cc1,"inconclusive [inhibitor, partial curve]",
N#Cc1c(-c2ccccc2)nc(SCC(=O)Nc2ccccc2)[nH]c1=O,"inconclusive [inhibitor, partial curve, poor fit]",
COC(=O)[C@@]12CCCCN1[C@H](c1ccc(-c3ccccc3)cc1)[C@H]1C(=O)N(C)C(=O)[C@H]12,,inactive: -0.409%
COC(=O)c1ccc(CSC2=NCCS2)cc1,,inactive: 4.45%
CCOc1cc2c(cc1OCC)CN(CC(=O)Nc1ccccc1C(=O)NC1CC1)CC2,"inconclusive [inhibitor, full curve, poor fit]",
O=C1CCc2cc(S(=O)(=O)Nc3ccccc3)ccc2N1,"inconclusive [inhibitor, full curve, poor fit]",
Cc1oc(-c2cccc(Cl)c2)nc1CN1CCCC(C(=O)NCCCN2CCOCC2)C1 (centres undefined),"inconclusive [inhibitor, partial curve, poor fit]",

SMILES,Potency,"activity change, negative = inhibition"
C/C(=N\NS(=O)(=O)c1ccc(Cl)c([N+](=O)[O-])c1)c1cc2ccccc2o1,"inconclusive [inhibitor, single point]",
COc1cnc(-c2ccccn2)nc1Sc1cccc(Cl)c1,"inconclusive [inhibitor, full curve, poor fit]",
CN(CCNC(=O)C1(O)c2ccccc2NC(=O)N1c1ccccc1)Cc1ccccc1 (centres undefined),"inconclusive [inhibitor, full curve, poor fit]",
O=C(CC1S/C(=N\S(=O)(=O)c2ccccc2)N(c2ccccc2)C1=O)Nc1ccc(F)cc1 (centres undefined),"inconclusive [inhibitor, single point]",
Cc1ccc(C)c(NC(=O)CN(C)C(=O)c2ccccc2OCc2ccccc2Cl)c1,"inconclusive [inhibitor, full curve]",
CC1CC(C)CN(C(=O)c2ccc(NC(=O)c3ccc(=O)[nH]c3)cc2)C1 (centres undefined),"inconclusive [inhibitor, full curve, poor fit]",
CCOC(=O)N1CCN(C(=O)C2CCCN(S(=O)(=O)c3cccnc3)C2)CC1 (centres undefined),"inconclusive [inhibitor, partial curve, poor fit]",
O=C(COc1ccc(F)cc1)Nc1nc(-c2ccccn2)cs1,"inconclusive [inhibitor, full curve, poor fit]",
CC1(c2ccc(Cl)cc2)NC(=O)CS1 (centres undefined),,inactive: -3.34%
Oc1c(Br)cc(/C=N/n2c(-c3ccccc3)n[nH]c2=S)c(O)c1Br,"inconclusive [inhibitor, partial curve]",
Cc1cnc(C(=O)NCCc2ccc(C(F)(F)F)cc2)cn1,"inconclusive [inhibitor, full curve, poor fit]",
CCCCOC(=O)c1ccc(N)cc1,"inconclusive [inhibitor, partial curve]",
CCOc1ccc(NC(=O)CN(C)C(=O)CCCc2c[nH]c3ccccc23)cc1OCC,"inconclusive [inhibitor, single point]",
O=C(Oc1ccccc1C(=O)N1CCOCC1)c1ccc(Br)cc1,,inactive: 1.01%
CCCS(=O)(=O)N1CCC(C(=O)NCCCN2CCC(Cc3ccccc3)CC2)CC1,"inconclusive [inhibitor, single point]",
O=C1/C(=C\c2cccnc2)CCc2ccccc21,,inactive: 1.09%
CC(=O)C1=C(O)CCC1=NCCc1ccccc1,"inconclusive [inhibitor, full curve, poor fit]",
C[C@H](NC(=O)C1CCN(S(=O)(=O)c2ccccc2)CC1)C(=O)NCc1cccc(C(F)(F)F)c1,,inactive: 2.84%
Cc1ccc(C2C(C(=O)c3cccs3)=C(O)C(=O)N2c2nnc(C)s2)cc1 (centres undefined),,inactive: 2.48%
CC(=O)c1cnc2nc(SCc3ccc(Cl)cc3)nn2c1C,"inconclusive [inhibitor, full curve, poor fit]",
CCOc1cccc2sc(NN)nc12,"inconclusive [inhibitor, full curve]",
O=C(Nc1c(Cl)cccc1Cl)c1cc(-c2ccco2)on1,,inactive: 0.959%
CCOC(=O)C1=C(C)N(c2ccccc2)C(=O)/C1=C\c1cccs1,"inconclusive [inhibitor, single point]",

SMILES,Potency,"activity change, negative = inhibition"
OC12CCCCC1C(c1ccccc1)NCC2 (centres undefined),"inconclusive [inhibitor, full curve, poor fit]",
CC(C)Cn1c(N)c(C(=O)COC(=O)c2cc(C(F)(F)F)nc3ccccc23)c(=O)n(C)c1=O,"inconclusive [inhibitor, full curve]",
CN1CCN(S(=O)(=O)c2ccc(NC(=O)c3ccc(F)cc3Cl)cc2)CC1,,inactive: -6.81%
C=CCOC(=O)C1=C(C)NC(C)=C(C(=O)OCC=C)C1c1ccc(C)o1,,inactive: -7.92%
CCOC(=O)C1=C(CN2CCN(c3ccccc3OC)CC2)NC(=O)NC1c1ccccc1 (centres undefined),"inconclusive [inhibitor, partial curve]",
Cc1cc(OCC(=O)NC2CC2)c2c(C)cc(=O)oc2c1,,inactive: -1.79%
Cc1cc(C)c2c(N)c(C(=O)Nc3nccs3)sc2n1,"inconclusive [inhibitor, full curve, poor fit]",
CCOc1ccc(NC(=O)CCSc2nc3c(c(CC)c2C#N)C(=O)CC(C)(C)C3)cc1,,inactive: -0.302%
Cc1cc(=O)[nH]c(SCc2ccc(Cl)cc2Cl)n1,,inactive: 5.26%
Cc1nn(C)cc1NC(=O)Cn1nc(C(F)(F)F)cc1C1CC1,"inconclusive [inhibitor, partial curve]",
CC(C)[C@H](NC(=O)c1ccccc1)C(=O)N1CCc2ccccc21,"inconclusive [inhibitor, full curve, poor fit]",
CN1CCC(NC(=O)Cc2c(F)cccc2Cl)CC1,"inconclusive [inhibitor, full curve, poor fit]",
COc1ccc(S(=O)(=O)N2CCOCC2)cc1NC(=O)CCNC(=O)c1ccc(Cl)cc1,"inconclusive [inhibitor, full curve, poor fit]",
COc1nc(NC(C)(C)C)nc(Oc2ccc(=O)n(-c3ccccc3)n2)n1,"inconclusive [inhibitor, full curve, poor fit]",
Cc1ccc2c(=O)cc(C(=O)Nc3sc4c(c3C(=O)NCC3CCCO3)CCC4)oc2c1 (centres undefined),,inactive: 17.4%
COc1ccccc1C(=O)N/C(N)=N/c1nc2ccccc2o1,,inactive: -13.6%
CCn1nc(C(=O)OCC(=O)NCC(C)C)c2ccccc2c1=O,"inconclusive [inhibitor, single point]",
O=S(=O)(c1ccccc1)N1N=C(c2ccccc2)CC1c1ccccc1 (centres undefined),,inactive: 5.01%
CCCCC(=O)Nc1nnc(SCC(=O)NC2CCCC2)s1,"inconclusive [inhibitor, partial curve]",
COc1ccc(-n2nc(C(=O)Nc3cc(C)ccn3)c3c4ccccc4n(C)c3c2=O)cc1,,inactive: 1.34%
Cc1c(C(=O)N(CCO)Cc2ccccc2)oc2c(F)cccc12,"inconclusive [inhibitor, full curve, poor fit]",
COc1ccc(Cl)cc1C(=O)NCCN(C)C,,inactive: 2.56%
CCCc1nnc(NC(=O)c2nc(SCC)ncc2Cl)s1,,inactive: -4.06%
